Test results taken from PubChem BioAssay AID488969 (Vanderbilt High Throughput Screening Facility, 2010).
The full ranking holds about 110,000 compounds; the median of “z-score” is about -0.1, and the highest 2% start at about 2. The list shows a part of the results. Activity calls are given as the source filed them.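 The calls were made as follows: active = z-score in the third read window above 3 or below -3; inactive = the rest.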

molecular target: Metabotropic glutamate receptor 8 (Rattus norvegicus) (UniProt P70579); test: mGluR8 Gi/Go-coupled signaling modulation – cell-based, rat, thallium flux, HTS, primary screen (AID 488969); details: HEK293 rat mGluR8, GIRK (G protein-gated inwardly rectifying potassium channel) thallium flux, FluoZin2; at 10 µM; stronger effect = higher value; submaximal glutamate (EC20) added with thallium
Chain of UniProt P70579 (P70579 whole entry, looked up): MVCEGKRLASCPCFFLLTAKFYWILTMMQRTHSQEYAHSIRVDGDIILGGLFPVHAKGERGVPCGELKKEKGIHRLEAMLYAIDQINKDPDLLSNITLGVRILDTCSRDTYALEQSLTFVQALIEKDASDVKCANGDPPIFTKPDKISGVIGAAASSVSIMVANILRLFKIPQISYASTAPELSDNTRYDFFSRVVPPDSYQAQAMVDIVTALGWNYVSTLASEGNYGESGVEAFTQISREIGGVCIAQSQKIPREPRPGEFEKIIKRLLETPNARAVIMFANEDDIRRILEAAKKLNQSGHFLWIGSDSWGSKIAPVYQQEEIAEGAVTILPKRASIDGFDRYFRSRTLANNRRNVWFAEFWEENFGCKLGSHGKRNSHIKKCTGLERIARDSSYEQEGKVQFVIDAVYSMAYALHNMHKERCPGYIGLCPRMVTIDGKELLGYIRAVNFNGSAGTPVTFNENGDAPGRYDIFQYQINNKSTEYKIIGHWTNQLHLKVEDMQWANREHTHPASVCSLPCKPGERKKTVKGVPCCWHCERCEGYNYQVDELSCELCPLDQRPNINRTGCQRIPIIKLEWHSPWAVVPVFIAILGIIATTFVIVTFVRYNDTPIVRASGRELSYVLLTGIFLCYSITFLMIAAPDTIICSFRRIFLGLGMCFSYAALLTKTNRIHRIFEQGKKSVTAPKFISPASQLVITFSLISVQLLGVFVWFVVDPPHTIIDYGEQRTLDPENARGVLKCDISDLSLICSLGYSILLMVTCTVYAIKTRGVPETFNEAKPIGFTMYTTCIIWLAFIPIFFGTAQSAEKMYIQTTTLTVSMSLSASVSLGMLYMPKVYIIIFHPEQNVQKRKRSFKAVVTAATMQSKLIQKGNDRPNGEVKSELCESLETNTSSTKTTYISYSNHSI

Row | Structure (SMILES) | z-score
1 | Cc1ccc(OCc2nnc(SCC(=O)c3ccccc3)n2Cc2ccco2)cc1 | -0.406
2 | CN(C)CCNc1oc(-c2cccc(Cl)c2)nc1C#N | 2.54
3 | COC(=O)Cn1c2ccccc2c2nc(C)sc21 | 0.312
4 | COC(=O)Nc1ccc(S(=O)(=O)NCCO)cc1 | -0.00223
5 | CC(=O)Nc1ccc(S(=O)(=O)NCC(=O)OCC(=O)NC23CC4CC(CC(C4)C2)C3)cc1 | 0.517
6 | CCOC(=O)c1c(NC(=O)c2ccn(CC)n2)sc2c1CCCC2 | 1.31
7 | CCCOc1ccc(C(=O)Nc2ccccc2[N+](=O)[O-])cc1 | 0.158
8 | O=C(CSc1cccc2cccc(Cl)c12)OCC(=O)N1CCN(C(=O)c2ccco2)CC1 | 0.312
9 | CCOCCCNC(=O)C(NC(=O)c1ccc(=O)[nH]c1)c1ccc(Cl)cc1 (centres undefined) | -0.13
10 | Cc1ccc(NC(=O)Cc2ccccc2Cl)cc1S(=O)(=O)N(C)C | active: 12.9
11 | Brc1nnc2n1-c1ccccc1Sc1ccccc1-2 | -1.45
12 | COc1ccc(OC)c(C(O)c2nc3ccccc3n2C(C)C)c1 (centres undefined) | -0.357
13 | O=C(c1cccc2ccccc12)N1CCN(CC2CC=CCC2)CC1 (centres undefined) | 0.744
14 | CCOC(=O)c1cc(OC(=O)c2ccccc2OC)n(-c2ccccc2)n1 | -1.31
15 | COC(=O)/C(C#N)=C/c1c(Oc2cc(C)cc(C)c2)nc2c(C)cccn2c1=O | -0.266
16 | O=C(COc1ccc(-c2ccccc2)cc1)N1CCN(C(=O)c2cccnc2)CC1 | 0.288
17 | COc1ccc(C(=O)Nc2nc(N3C(=O)c4ccccc4C3=O)n(-c3ccccc3)n2)cc1 | -0.321
18 | CCc1ccc(/C=N/NC(=S)NCCc2ccccc2)cc1 | 0.0899
19 | CCc1c(C)sc(NC(=O)c2cccs2)c1C(N)=O | -0.157
20 | Cc1ccc(-n2c(Cc3ccccc3)nnc2SCC(=O)NNC(=O)Cc2ccccc2)cc1 | -0.231
21 | CC(Sc1nnc(-c2cccnc2)n1-c1ccccc1F)C(=O)N1CCCc2ccccc21 (centres undefined) | -0.138
22 | Cc1cccc(C)c1OCC(=O)N/N=C/c1cccn1C | -0.372

Row | Structure (SMILES) | z-score
23 | O=C(CN1CCc2ccccc2C1)N1CCN(S(=O)(=O)c2ccccc2)CC1 | -0.115
24 | Cc1nnc(NC(=O)c2cccc(S(=O)(=O)N3CCOCC3)c2)s1 | 0.716
25 | COc1cc(/C=N/NC(=Nc2ccc(C)cc2)c2nc3ccccc3s2)ccc1O | -0.0851
26 | N#C/C(=C\c1cccs1)Sc1nc2ccccc2s1 | -0.0135
27 | COc1ccc(C2SC[C@@H](C(=O)O)N2C(C)=O)cc1 (some centres undefined) | -0.0378
28 | CSc1ccccc1NC(=O)CN(Cc1ccc(Cl)cc1)S(C)(=O)=O | 0.432
29 | CSc1nc(N)nc(SCC(=O)C23CC4CC(CC(C4)C2)C3)c1C#N | 0.026
30 | N#Cc1c(NC(=O)CN2C(=O)c3ccccc3C2=O)oc(-c2ccccc2)c1-c1ccccc1 | -1.22
31 | Cc1nn(Cc2ccc(Cl)cc2)c(C)c1NC(=O)c1cc(-c2ccco2)on1 | -0.503
32 | COc1ccc(Sc2ccc(/C=C3\C(=O)NN(c4ccccc4)C3=O)o2)cc1 | -0.119
33 | C/C(=N\NC(=O)C1CC1c1ccccc1)c1ccc(C)s1 (centres undefined) | -0.341
34 | Cc1cccc(C(=O)N2CCCN(C(=O)c3cccc(C)c3)CC2)c1 | -0.313
35 | CCn1c(=O)c(=O)[nH]c2cc(C(=O)NCC3CCCCC3)ccc21 | -1.01
36 | O=C(Cn1c(=O)oc2cc(S(=O)(=O)N3CCCCCC3)ccc21)NC1CCCCC1 | 0.236
37 | Cc1ccc(Nc2nc(NCC3CCCO3)nc(N)c2[N+](=O)[O-])cc1 (centres undefined) | -0.463
38 | Cc1[nH]n(-c2ccccc2)c(=O)c1/C=N/c1ccccn1 | 2.61
39 | Cc1ccccc1Oc1nc2ccccn2c(=O)c1/C=C(\C#N)C(=O)Nc1c(C)n(C)n(-c2ccccc2)c1=O | -0.306
40 | CCn1c(SCC(=O)NCc2ccccc2)nc2c(c1=O)SC(C)C2 (centres undefined) | -0.527
41 | O=c1cc(-c2ccccc2)c2c([nH]1)CCCC2 | -0.18
42 | N=c1n(CCN2CCCC2)c2ccccc2n1CC(O)c1ccco1 (centres undefined) | 0.673
43 | CCCCc1c(C)c(C#N)c2nc3ccccc3n2c1Nc1c(C)n(C)n(-c2ccccc2)c1=O | -0.643
44 | Cc1cc(Cl)ccc1OCCCC(=O)N1CCOCC1 | -0.0277

Row | Structure (SMILES) | z-score
45 | CCOC(=O)c1c(C)n(C)c2ccc(OCC(N)=O)cc12 | -1.72
46 | COc1cccc(CN2CCN(C(=O)c3cccc(F)c3)CC2)c1 | -0.0593
47 | CS(=O)(=O)N1CCCC(C(=O)NCc2ccc(F)cc2Cl)C1 (centres undefined) | -0.209
48 | CCOC(=O)N1CCN(CCC(=O)c2ccc(Cl)cc2)CC1 | -1.38
49 | CC1C/C(=N\NC(=S)NC(C)C)CC(C)(C)C1 (centres undefined) | 0.954
50 | N=c1n(CC(=O)O)c2ccccc2n1Cc1ccccc1Cl | -0.107
51 | O=C(OCC(=O)c1ccc(Cl)s1)c1ccccn1 | -0.0208
52 | Cc1ccc(C(=O)N2CCOCC2)cc1Cl | -0.114
53 | Cc1cc(C)c(S(=O)(=O)n2ccc(-c3ccc(OCCN(C)c4ccccn4)cc3)n2)c(C)c1 | -0.0145
54 | Cc1nccn1-c1ncnc2sc3c(c12)CCCC3 | -0.019
55 | CS(=O)(=O)N(CC(=O)Nc1c(F)cccc1F)c1ccc(C23CC4CC(CC(C4)C2)C3)cc1 | -0.145
56 | O=C(NCCN1CCCCCC1)C1CCC(CNS(=O)(=O)c2cccc3cccnc23)CC1 (centres undefined) | -0.387
57 | CCS(=O)(=O)N1CCN(c2ccc(Cl)cc2[N+](=O)[O-])CC1 | 0.325
58 | Cn1c(=O)n(CC(=O)Nc2cccnc2)c2ccccc21 | -0.362
59 | CCC(C(=O)Nc1c[nH]c(=O)[nH]c1=O)c1ccccc1 (centres undefined) | -0.185
60 | CCCC(=O)Nc1ccc(S(=O)(=O)Nc2cc(C)nc(C)n2)cc1 | -0.809
61 | CC(=O)c1cc(-c2ccccc2)n(CC(=O)NC2CCCC2)c1C | 0.31
62 | CC(C)(C)NC(=O)c1oc2ccccc2c1COc1ccccc1 | -0.0414
63 | O=C(Cn1nnc(-c2ccccc2NC(=O)c2ccco2)n1)NC1CCCCC1 | 0.12
64 | CC(C)(C)CC(=O)OCC(=O)Nc1cc(C(C)(C)C)nn1-c1ccccc1 | -0.407
65 | CC(C)OC(=O)c1c(NC(=O)Cn2cnc([N+](=O)[O-])n2)sc2c1CCCC2 | 0.393
66 | COC(=O)C1C(=O)C2=C(CC1C)NC(C)=C(C(=O)OC(C)C)C2c1ccc(C)o1 (centres undefined) | 0.1

Row | Structure (SMILES) | z-score
67 | O=C(CSc1ncnc2c1oc1ccccc12)NCC1CCCO1 (centres undefined) | -0.215
68 | CCOC(=O)c1cc(-c2ccc(N3CCOCC3)cc2)nn1-c1ccccc1 | -0.59
69 | CCOc1ccc(OCCSc2nc3ccccc3[nH]2)cc1 | active: 3.67
70 | Cn1cc(/C=N/NC(=O)COc2ccccc2[N+](=O)[O-])c2ccccc21 | -0.104
71 | COc1ccc(Cn2nnnc2C(c2cccs2)N2CCOCC2)cc1 (centres undefined) | 0.79
72 | Cc1cc[n+](-c2nc3ccccc3nc2[N-]S(=O)(=O)c2ccccc2)cc1 | -0.0628
73 | CSCCC(C(=O)NC1=NCCS1)N1C(=O)c2ccccc2C1=O (centres undefined) | -0.114
74 | Cc1c(O)ccc2c3c(c(=O)oc12)CCCC3 | -0.491
75 | COc1ccc2c(c1)-c1c(sn(-c3ccc(OC)c(OC)c3)c1=S)C(C)(C)N2 | -0.354
76 | Cc1ccc(NC(=O)c2cc(N3C(=O)C=CC3=O)ccc2N2CCOCC2)cc1Cl | -0.485
77 | CCSc1nc2ccccc2n1CC(=O)OC | 0.0654
78 | CC(C)C(OC(=O)c1cccs1)C(=O)NCc1ccco1 (centres undefined) | 0.681
79 | C=CCOC(=O)COc1ccc2c(C)c(C)c(=O)oc2c1C | -0.629
80 | Cc1cc(C)nc(NN=C2CCCC2)n1 | 0.417
81 | COc1ccccc1C(=O)NCC(=O)OCC(=O)c1ccc2c(c1)-c1ccccc1C2 | 0.242
82 | Nc1cc(-c2cccc([N+](=O)[O-])c2)[nH]n1 | 0.124
83 | O=C(CSc1ncn[nH]1)c1ccc2c(c1)OCCO2 | -0.487
84 | CC(=O)N1CCN(c2ccc(NC(=O)c3ccc(C(C)(C)C)cc3)cc2)CC1 | -0.142
85 | Cc1ccc(C(=O)Nc2cccc([N+](=O)[O-])c2)cc1S(=O)(=O)Nc1ccc(NC(=O)c2ccccc2)cc1 | -0.0252
86 | Cc1ccc(S(=O)(=O)N2CCCC2C(=O)OCC(=O)Nc2ccc3c(c2)OCO3)cc1 (centres undefined) | -0.265
87 | Cn1c(N)c(C(=O)c2ccc(Cl)cc2)c(=O)n(C)c1=O | 0.632
88 | CCN(C(=O)COC(=O)c1cc(NS(=O)(=O)c2ccc(Cl)c([N+](=O)[O-])c2)ccc1O)C1CCCCC1 | 2

Row | Structure (SMILES) | z-score
89 | COC(=O)c1ccc(SCC(=O)NC2CCCC2)c([N+](=O)[O-])c1 | 0.103
90 | Cc1nc2ccccc2cc1OCc1ccccc1 | -0.299
91 | CS(=O)(=O)N1CCCC(C(=O)NCc2ccccc2Cl)C1 (centres undefined) | 0.223
92 | O=C(Cn1cnc2cc(Cl)ccc2c1=O)Nc1ccc2c(c1)OCO2 | -0.115
93 | O=C(CCCOc1ccccc1)N1CCCCC1 | -0.959
94 | COc1ccc(OC)c(NC(=O)CSc2nnc(N)s2)c1 | -0.287
95 | CC1CN(C2CCN(C(=O)COc3ccccc3)CC2)CC(C)O1 (centres undefined) | 0.629
96 | O=C1CCCCCN1CSc1nc2ccccc2s1 | 0.104
97 | O=S(=O)(NCCOc1ccc(F)cc1)c1ccc2c(c1)OCCO2 | -0.332
98 | COC(=O)c1ccc(S(=O)(=O)NCc2cccc(OC)c2)n1C | -0.366
99 | CCN1CCCC1CNS(=O)(=O)c1ccc(C(=O)Nc2ccccc2)cc1 (centres undefined) | 0.276
100 | Cc1ccc2cc(C)c3nnc(SCC(=O)Nc4nc5c(s4)CCCC5)n3c2c1C | -0.125
101 | CC(C)C1(C)C(=O)N=C2c3ccccc3C(=O)N21 (centres undefined) | -0.22
102 | Cc1cc(C)cc(N(C(=O)Cn2nnc(-c3ccccc3)n2)C(C(=O)NC2CCCCC2)c2ccccn2)c1 (centres undefined) | -0.269
103 | COC(=O)CSc1nc2ccc(NC(=O)c3ccccc3C(=O)N3CCOCC3)cc2s1 | -0.331
104 | CC(C/C=N/NC(=O)COc1cc(Cl)ccc1Cl)c1ccccc1 (centres undefined) | -0.0205
105 | Cc1ccc(Cl)cc1NC(=S)NCc1cccn1C | active: 6.81
106 | Cc1cccc(NC(=O)c2cc3c(n(-c4ccccc4)c2=O)CCCC3=O)n1 | -0.15
107 | O=c1c2c(n3nnnc3n1Cc1ccccc1)-c1ccccc1CC21CCCC1 | 0.0259
108 | COc1ccc(CNC(=O)COC(=O)c2c(-c3c(F)cccc3Cl)noc2C)cc1OC | -0.0955
109 | CCNC(=S)Nc1cc(OCC)c(NC(=O)c2cccs2)cc1OCC | -0.0899
